{
  "source": "PubChem BioAssay AID2107",
  "about": "(National Center for Advancing Translational Sciences (NCATS), 2009)",
  "note": "In all, about 240,000 compounds went through this assay and about 20 (0.008%) were called active. The inconclusive results got no clear call from the source; some entries with a clear call stand among them for comparison. Calls follow the shape of the dose curve; as a rule, active = well fitted inhibition curve with a large enough effect; inconclusive = small, poorly fitted or top-dose-only effect, or effect the other way; inactive = flat fitted curve, though single readings scatter. Potencies of inconclusive entries are left out as doubtful fits. Potency is read from the fitted curve at half-maximal effect; tags tell the direction and shape of the fitted curve.",
  "data": [
    {"target": "Alpha-galactosidase A (Homo sapiens) (UniProt P06280)", "sequence (P06280 whole entry, looked up)": "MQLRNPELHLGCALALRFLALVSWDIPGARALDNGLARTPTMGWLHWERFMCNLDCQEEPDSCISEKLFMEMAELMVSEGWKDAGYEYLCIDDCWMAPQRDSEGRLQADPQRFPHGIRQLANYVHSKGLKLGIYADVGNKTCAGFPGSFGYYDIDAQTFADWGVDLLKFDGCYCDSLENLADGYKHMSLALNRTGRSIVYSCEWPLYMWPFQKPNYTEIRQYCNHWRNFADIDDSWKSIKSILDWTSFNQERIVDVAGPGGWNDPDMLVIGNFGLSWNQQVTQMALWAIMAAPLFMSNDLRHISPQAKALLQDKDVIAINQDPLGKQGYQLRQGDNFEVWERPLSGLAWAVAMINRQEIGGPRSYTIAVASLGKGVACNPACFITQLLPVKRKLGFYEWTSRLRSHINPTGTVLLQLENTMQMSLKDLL", "assay": "qHTS Assay for Inhibitors and Activators of Human alpha-Galactosidase From Spleen Homogenate;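 as to activity change, negative = inhibition: 0% = enzyme with vehicle and -100% = no enzyme basal signal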", "conditions": "4MU-alpha-Gal fluorescence, 40 min; activity change, negative = inhibition: at 80 µM (top of the series)", "outline": "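Spleen homogenate 1 ug + cpd (titration) + 4-MU-alpha-D-galactopyranoside 1 mM; 37C 40 min; 50 mM citrate/phosphate pH 5.0, 0.01% Tween-20; stop pH 10; fluorescence 365/440; AC50 via Hill.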", "values": [
      {"smiles": "CC1CCCC(NC(=O)CCC(=O)c2ccc(F)cc2)C1C", "note": "(centres undefined)", "activity change, negative = inhibition": "inactive: 0.909%"},
      {"smiles": "CC(=O)[C@]1(O)Cc2c(O)c3c(c(O)c2[C@@H](O[C@H]2C[C@H](N)[C@H](O)[C@H](C)O2)C1)C(=O)c1c(O)cccc1C3=O", "activity change, negative = inhibition": "inactive: -8.01%"},
      {"smiles": "CC(C)Cc1nnc(NC(=O)Cc2ccccc2[N+](=O)[O-])s1", "activity change, negative = inhibition": "inactive: -4.62%"},
      {"smiles": "Cc1ccc(C)c(NC(=O)C2C3CCCC2C3c2ccccc2)c1", "note": "(centres undefined)", "Potency": "inconclusive [activator, full curve, poor fit]"},
      {"smiles": "N=c1c2c(-c3ccccc3)c(-c3ccccc3)n(Cc3ccco3)c2ncn1CCCN1CCOCC1", "activity change, negative = inhibition": "inactive: -2.79%"},
      {"smiles": "c1ccc(-c2cn3c(n2)SCC3)cc1", "Potency": "inconclusive [inhibitor, single point]"},
      {"smiles": "O=C1[C@H]2C(c3ccccc3)=NN(c3ccccc3)[C@H]2C(=O)N1c1ccccc1", "Potency": "inconclusive [activator, partial curve]"},
      {"smiles": "COc1ccc(OCc2n(CC(=O)OC3CC(C)CCC3C(C)C)c3ccccc3[n+]2C)cc1", "note": "(centres undefined)", "Potency": "inconclusive [inhibitor, single point]"},
      {"smiles": "COC(=O)CSc1nc(C)c2ccc(OC)cc2n1", "Potency": "inconclusive [activator, partial curve]"},
      {"smiles": "CCCn1nc(NC(=O)c2cccs2)c2cc3ccccc3nc21", "Potency": "inconclusive [activator, single point]"},
      {"smiles": "CC(C)CO/N=C1/C[C@@H](O)[C@@H](O)[C@@H]2[C@@H]3C(=O)N(C(C)(C)C)C(=O)[C@H]3CC[C@H]12", "activity change, negative = inhibition": "inactive: 7.16% [at 17.5 µM]"},
      {"smiles": "COC(=O)[C@H](Cc1ccccc1)NC(=O)O[C@@H]1C(=O)c2cc(OC)ccc2O[C@H]1c1cccc(OC)c1", "activity change, negative = inhibition": "inactive: 8.26%"},
      {"smiles": "NC(=S)Nc1cccc2cn[nH]c12", "Potency": "inconclusive [inhibitor, single point]"},
      {"smiles": "Cc1cn(C2OC(COC(=O)c3ccccc3)C(OC(=O)c3ccccc3)C2OC(=O)c2ccccc2)c(=O)[nH]c1=O", "note": "(centres undefined)", "activity change, negative = inhibition": "inactive: 2.48%"},
      {"smiles": "O=c1c(-c2cccs2)nc2cnc(Oc3cccc(Cl)c3)nc2n1C1CC1", "Potency": "inconclusive [activator, single point]"},
      {"smiles": "COc1ccc([C@@H]2CC(=O)c3c(O)cc(O[C@@H]4O[C@H](CO)[C@@H](O)[C@H](O)[C@H]4OC4O[C@@H](C)[C@H](O)[C@@H](O)[C@H]4O)cc3O2)cc1O", "note": "(some centres undefined)", "activity change, negative = inhibition": "inactive: -4.74%"},
      {"smiles": "CC(=O)N=c1c(C#N)cc2c(=O)n3cccc(C)c3nc2n1CCCOC(C)C", "Potency": "inconclusive [activator, partial curve]"},
      {"smiles": "Cc1ccc(C(=O)O)cc1NC(=S)NC(=O)c1ccc(-c2ccccc2)cc1", "activity change, negative = inhibition": "inactive: 1.46%"},
      {"smiles": "CCN(CC)c1ccc(C(=O)OCc2cc(=O)oc3cc(O)ccc23)cc1", "Potency": "inconclusive [activator, partial curve]"},
      {"smiles": "O=C(c1ccco1)N1CCC[C@@]2(CCN(c3ccncc3)C2)C1", "activity change, negative = inhibition": "inactive: 2.26%"},
      {"smiles": "COc1cc2nc(N3CCN(C(=O)OCc4ccccc4)[C@H](C(=O)NC(C)(C)C)C3)nc(N)c2cc1OC", "Potency": "inconclusive [activator, single point]"},
      {"smiles": "Cc1ccc(NC(=O)c2c(-c3c(F)cccc3Cl)noc2C)cc1F", "Potency": "inconclusive [activator, full curve, poor fit]"},
      {"smiles": "O=c1c(-c2ccccc2)nc2cnc(N3CCNCC3)nc2n1-c1ccccc1", "Potency": "inconclusive [activator, partial curve]"},
      {"smiles": "CN(C)CCNC(=O)c1ccc2c(c1)N(Cc1ccc(F)cc1)CCS2", "Potency": "inconclusive [activator, partial curve]"},
      {"smiles": "CCN(CC)C(=O)c1cc2sc3ccccc3c2s1", "Potency": "inconclusive [inhibitor, partial curve]"},
      {"smiles": "O=C(NCc1ccco1)c1cnn2c1NC(c1ccccc1)CC2C(F)(F)F", "note": "(centres undefined)", "Potency": "inconclusive [inhibitor, partial curve]"},
      {"smiles": "Cc1ccc2c(c1)c1ncnc(N3CCOCC3)c1n2C", "Potency": "inconclusive [activator, partial curve]"},
      {"smiles": "COCCn1c(=O)c(-c2cccs2)nc2cnc(N3CCNCC3)nc21", "Potency": "inconclusive [activator, partial curve]"},
      {"smiles": "Cc1ccc(CNc2ncnc3ccc(-c4c(C)noc4C)cc23)cc1", "activity change, negative = inhibition": "inactive: -4.6%"},
      {"smiles": "COCc1cc(C)nc2sc3c(=O)oc(C)nc3c12", "Potency": "inconclusive [activator, single point]"},
      {"smiles": "CC(=O)N(c1cccc(Cl)c1)c1nc(C)cc(C)c1C#N", "activity change, negative = inhibition": "inactive: -0.368%"},
      {"smiles": "Cc1ccc(C(=O)/C=C/NCc2ccc(F)cc2)cc1", "Potency": "inconclusive [inhibitor, single point]"},
      {"smiles": "COc1ccc2[nH]cc(CCNc3nc(-c4c(C)noc4C)nc4ccccc34)c2c1", "Potency": "inconclusive [inhibitor, partial curve]"},
      {"smiles": "CCCc1cc(NCC2CCCO2)n2c(nc3ccccc32)c1C#N", "note": "(centres undefined)", "Potency": "inconclusive [activator, partial curve]"},
      {"smiles": "CCOC(=O)Cc1c(C)c2ccc(N(CC)CC)cc2oc1=O", "Potency": "inconclusive [activator, single point]"},
      {"smiles": "CCCCNC(=O)Cn1cnc2sc(C(=O)OCC)c(C)c2c1=O", "Potency": "inconclusive [activator, single point]"},
      {"smiles": "CC[C@H]1C(c2ccc(F)cc2)=NN(c2ccccc2)[C@@H]1CO", "Potency": "inconclusive [activator, partial curve]"},
      {"smiles": "COc1cccc(C(=O)CSc2nc3ccccc3n2CC(=O)N(C(C)C)C(C)C)c1", "activity change, negative = inhibition": "inactive: -1.45%"},
      {"smiles": "CCOc1ccc(NC(=O)CCC(=O)NNC(=O)Nc2ccc(Cl)cc2)cc1", "activity change, negative = inhibition": "inactive: 6.39%"},
      {"smiles": "COc1ccc(COC(=O)C2=C(C)NC(=O)NC2c2ccc(O)c(OC)c2)cc1", "note": "(centres undefined)", "activity change, negative = inhibition": "inactive: 4.14%"},
      {"smiles": "COc1cccc(NC(=O)Cn2c(CCC(=O)O)ccc2-c2ccc(Cl)cc2)c1", "activity change, negative = inhibition": "inactive: -2.3%"},
      {"smiles": "CC(C)Nc1oc(-c2cccc3ccccc23)nc1C#N", "Potency": "inconclusive [activator, partial curve]"},
      {"smiles": "Cn1c(=O)oc2cc(S(=O)(=O)Nc3ccc4c(c3)OCCO4)ccc21", "activity change, negative = inhibition": "inactive: 4.87%"},
      {"smiles": "C=CCn1c(SCC(=O)c2ccc(OC)cc2)nnc1-c1cc2cccc(OC)c2o1", "activity change, negative = inhibition": "inactive: -0.223%"}
    ]}
  ]
}
